From PubChem BioAssay (NCI)
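All cell lines were grown in 96-well plates and treated with compound for 48 hours. GI50 = concentration required for 50% inhibition of growth. TGI is the concentration that stops growth completely.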

system: NCI-H322M lung; experiment: DTP human tumour cell line panel, 48 h

| Compound | TGI | GI50 |
| --- | --- | --- |
| Cc1ccc(S(=O)(=O)N2CCCSCCSCCCSCC2)cc1 | > 100 µM | – |
| N[C@H]1C2C3CC4C5CC(C42)C1(c1ccccc1)C53 (some centres undefined) | > 100 µM | – |
| Clc1ccccc1/C=C/c1nsc(/C=C/c2ccccc2Cl)n1 | > 100 µM | – |
| COc1ccc(N(C)c2nc(C)nc3ccccc23)cc1 | > 100 µM | < 0.01 µM |
| COc1ccc(-c2cc(-c3ccc(Nc4nc(Nc5ccc(Cl)cc5)nc(Nc5ccc(Cl)cc5)n4)cc3)nc(N)c2C#N)cc1 | > 100 µM | 35 µM |
| Cn1nc(-c2ccccc2NC(=O)C(F)(F)F)c(=O)n(C)c1=S | > 100 µM | – |
| Cc1cccc(/C=N/NC(=S)NCc2ccccn2)n1 | > 100 µM | – |
| NCC(O)CNCC/C=C\C/C=C\C/C=C\C/C=C\C/C=C\C/C=C\CCCCC/C=C\CCNCC(O)CN (centres undefined) | 3.07 µM | – |
| CCOc1ccc(N2C(=O)C3c4[nH]c5ccccc5c4C4CCC(C(C)(C)C)CC4C3C2=O)cc1 (centres undefined) | > 100 µM | – |
| O=C(Nc1ccncc1)C(=O)c1cn(S(=O)(=O)c2ccc(Br)cc2)c2ccccc12 | > 100 µM | > 100 µM |
| Cc1c(NC(=O)C(=O)N=NC(=O)c2ccncc2)c(O)c2ccccc2c1O | 29.3 µM | – |
| COc1ccccc1C(=O)/C=C/c1cc2cccc(OC)c2[nH]c1=O | 5.73 µM | 0.291 µM |
| COC(=O)C1Cc2ccc(C)cc2C1=O (centres undefined) | > 100 µM | – |
| CC(C)(C)c1cc(C(=O)/C=C/c2ccc(O)c(O)c2O)cc(C(C)(C)C)c1O | > 65.7 µM | – |
| CCCCCCCCCCCCCCCCCCNC(=O)[C@H]1CSC(c2ccc(OC)c(F)c2)N1 (some centres undefined) | > 47.1 µM | > 31.6 µM |
| CC[C@@H](CCCC[C@@H]1CC[C@H]2CC(=O)C[C@@H]12)OC | > 100 µM | – |
| CCOC(=O)c1cccc(NC(=O)CBr)c1 | 6.89 µM | – |
| CNNC1=NS(=O)(=O)c2cc(C)c(Cl)cc2S1 | > 10 µM | – |
| COc1cc(-c2cc(C(=O)N3CCN(C(=O)c4ccccc4NCc4ccco4)CC3)nc3cc(-c4ccccc4)nn23)cc(OC)c1OC | > 100 µM | 6.37 µM |
| COc1cc(N(CCC#N)CCC#N)ccc1/C(N=Nc1ccc(C)cc1)=N/NC(=O)c1cc(Br)ccc1O | 73.2 µM | – |
| O=S(=O)(O)CS(=O)(=O)OCCCl | > 100 µM | – |
| CC1=COC(=O)c2ccccc2N1 | > 100 µM | – |
| O=[N+]([O-])c1cccc(N=C2c3ccccc3CN2c2cccc([N+](=O)[O-])c2)c1 | > 100 µM | – |
| CC(C)Nc1[nH]c(C(=O)c2ccccc2)c(N)c1C(=S)Nc1ccccc1 | > 100 µM | – |
| COC(=O)[C@@H]1C=C[C@@H](C#N)n2c(=O)n(-c3ccccc3)c(=O)n21 | > 100 µM | – |

| Compound | TGI | GI50 |
| --- | --- | --- |
| COc1ccc(NC(=O)CC(=O)n2nc(C)c(N=Nc3ccc(C)c(C)c3)c2C)cc1 | > 100 µM | – |
| O/N=C1/C(=C/c2ccc(F)cc2)CCCC1C(NO)c1ccc(F)cc1 (centres undefined) | 36.9 µM | – |
| Nc1ccn(C=C=CCO)c(=O)n1 | > 1000 µM | > 1000 µM |
| CC(CC(=O)CO[C@H]1[C@H](O)[C@@H](O)[C@@H](O)[C@@H]2NC(=O)c3c(cc4c(c3O)OCO4)[C@H]21)OC1OC(CO)C(O)C(O)C1O (some centres undefined) | 2.12 µM | – |
| C[C@H]1[C@H](OC(=O)CCC(=O)O)O[C@@H]2O[C@]3(C)CC[C@H]4[C@H](C)CC[C@@H]1[C@@]24OO3 | > 100 µM | 15 µM |
| Cc1ccc(/C=C2\CN(C)CC3C(c4ccc(C)cc4)=C(C#N)C(=O)NC23)cc1 (centres undefined) | > 50 µM | – |
| O/N=C1\CCc2cc(-c3nc(C4CCNCC4)[nH]c3-c3ccncc3)ccc21 | > 25 µM | > 25 µM |
| CNC(=O)OCc1nc(SC(C)C)n(C)c1COC(=O)NC | > 100 µM | – |
| CC(=O)Oc1cc(OC(C)=O)c2c(=O)c3ccccc3n(C)c2c1 | > 100 µM | – |
| Cc1cc(C)c(S(=O)(=O)N[C@@H](/C=C(\Br)CO)C(C)C)c(C)c1 | > 100 µM | – |
| Nc1cccc2c1C(=O)N(C1CCC(=O)NC1=O)C2=O (centres undefined) | > 100 µM | > 100 µM |
| Cc1ccc(S(=O)(=O)N/N=C/C(Br)=C(/Br)C(=O)O)cc1 | 37.7 µM | – |
| NNC(=O)/C(=C/c1cccc([N+](=O)[O-])c1)NC(=O)c1ccccc1 | > 100 µM | – |
| CCOC(=O)Cc1c(Cc2[nH]c(C(=O)OCc3ccccc3)c(CC(=O)OCC)c2CC(=O)OCC)[nH]c(C(=O)OCc2ccccc2)c1CC(=O)OCC | > 100 µM | – |
| C/C(=N\NC(=S)Nc1ccc(C(=O)O)cc1)c1ccccn1 | 51.2 µM | – |
| CC1(C)CC(=O)C2=C(C1)NC(SSC1=C(C#N)C(c3ccccc3)C3=C(CC(C)(C)CC3=O)N1)=C(C#N)C2c1ccccc1 (centres undefined) | > 150 µg/mL | 150 µg/mL |
| OB([O][Hg][c]1ccccc1)[O][Hg][c]1ccccc1 | 2.96 µM | 1.52 µM |
| CCCCN(CCCC)C(=O)C(=O)CC(=O)c1ccc(Br)cc1 | > 100 µM | – |
| CC(=O)[CH-]C(=O)c1ccccc1.CC(=O)[CH-]C(=O)c1ccccc1.CCN(CC)CC[O-].CCN(CC)CC[O-].Cl.[Ti+4] | > 100 µM | 50.1 µM |
| Cc1cc(NC(=O)C2c3ccccc3C(=O)N(CC(C)C)C2c2cccs2)no1 (centres undefined) | > 100 µM | > 100 µM |
| O=[N+]([O-])c1ccc(Cl)cc1-n1nc(-c2ccccc2)cc1-c1ccccc1 | > 100 µM | – |
| CC1=C(C(=O)Nc2ccccc2)C(c2ccc3c(c2)OCO3)C(C(=O)Nc2ccccc2)=C(C)N1 | > 100 µM | – |
| CSCCC(NCc1c(O)ccc2ccc(=O)oc12)C(=O)O (centres undefined) | > 100 µM | – |
| O=C1Nc2cccc3ncn(c23)C2=C1CCCC2 | > 100 µM | – |
| O=C1c2cc3c(cc2-c2c1c1cc(Cl)c(Cl)cc1c(=O)n2CCCn1ccnc1)OCO3 | > 100 µM | 0.0469 µM |

| Compound | TGI | GI50 |
| --- | --- | --- |
| N#C/C(=C\c1c(-c2ccccc2)[nH]c2ccccc12)C(=O)c1ccc(Cl)cc1 | > 100 µM | 9.11 µM |
| ClC(=Nc1cccc2ccccc12)N(c1ccccc1)c1ccccc1 | > 100 µM | – |
| Cc1ccc(S(=O)(=O)NC(=O)NC(CO)C(=O)O)cc1 (centres undefined) | > 100 µM | – |
| Cc1ccc(-c2sc(-c3ccc(C)cc3)c3c2C2CCC3C2)cc1 | > 50 µM | – |
| CCOC(=O)/C(C1=N[C@H](C(=O)OCC)CS1)=C(\C)O | > 100 µM | – |
| Cc1nc2c(o1)C(=O)c1ccccc1C2=NC1CCCCC1N (centres undefined) | 3.16 µM | – |
| COc1cc(C(=O)O)c([N+](=O)[O-])c(OC)c1OC | > 100 µM | – |
| O=C(O)C(Cc1ccc2c(c1)CCC2)(Cc1ccc2c(c1)CCC2)C(=O)O | > 100 µM | – |
| CCOP(=O)(OCC)C1C(=O)O[C@H]2CCCC[C@@H]12 (some centres undefined) | > 100 µM | – |
| C[C@H](CCC1=NCCN1)[C@H]1CC[C@H]2[C@@H]3[C@H](O)C[C@@H]4C[C@H](O)CC[C@]4(C)[C@H]3CC[C@]12C | 27.6 µM | – |
| COc1ccccc1/C=C1\Sc2scc(-c3cccc([N+](=O)[O-])c3)[n+]2C1=O | 39.1 µM | – |
| O=C1NCC2(CCNCC2)N1c1ccccc1 | > 100 µM | – |
| C=CC1C2=C(C(=O)NCC2)C2OC(O)C3=C(CCNC3=O)C2C1C (centres undefined) | > 100 µM | – |
| O=C(O)C(CS)NCc1c2ccccc2[n+]([O-])c2ccccc12 (centres undefined) | > 100 µM | – |
| O=C1/C(=C\c2ccc(Cl)cc2)CN(C(=S)Nc2ccccc2)C/C1=C\c1ccc(Cl)cc1 | 14.4 µM | 2.66 µM |
| CC(=O)Oc1ccccc1[C@H]1CC(=O)C[C@H](c2ccccc2OC(C)=O)C12C(=O)c1ccccc1C2=O | > 100 µM | – |
| O=C(NCCN1C(=O)CN=C(c2ccc(Cl)cc2)c2cc(Cl)ccc21)OCc1ccccc1 | 83.9 µM | – |
| O=C1CC2CC=C[C@H]3c4cc5c(cc4C(=O)N1C23)OCO5 (some centres undefined) | > 50 µM | – |
| O=C(Cc1ccccc1)NN1C(=O)C(Cl)C1c1cccc(O)c1 (centres undefined) | 34.5 µM | – |
| COC1C=C(Nc2cccc(Cl)c2)C(=O)C1 (centres undefined) | > 100 µM | – |
| COC(=O)Nc1nc2ccc(C(=O)c3ccc[nH]3)cc2[nH]1 | > 100 µM | – |
| COc1cc2c3c(n(C)c(=O)c2cc1OC)-c1cc2c(cc1/C3=C\CCCCN)OCO2 | 9.58 µM | 2.51 µM |
| COc1cc2cc(Oc3ccc(NC(=O)Nc4cccc(C(F)(F)F)c4)cc3)c(C)nc2cc1OCCN1CCCCC1 | 3.2 µM | 1.81 µM |
| Cc1c2c(c(C)n1-c1ccccc1)C(=O)N(CCSC(=N)N)C2=O | > 100 µM | – |
| CN(C)CCN1C(=O)CC[C@@]2(C)C1=CC[C@@H]1[C@@H]2CC[C@@]2(C)[C@H]1CC[C@]2(C)O | > 100 µM | – |

| Compound | TGI | GI50 |
| --- | --- | --- |
| Cc1ccc(S(=O)(=O)NC(CCC(=O)Nc2ccc(Cl)cc2)C(=O)Nc2ccc(Cl)cc2)cc1 (centres undefined) | 9.24 µM | 1.28 µM |
| Cc1ccc(/C=C2\N=C(N3CCCCC3)NC2=O)cc1 | > 100 µM | – |
| Cc1cn(CC2=NCCN2)c(=O)[nH]c1=O | > 100 µM | – |
| CCCCCCC(=O)C/C(CCC(=O)N(Cc1ccccc1)Cc1ccccc1)=N\Nc1ccc([N+](=O)[O-])cc1[N+](=O)[O-] | > 100 µM | – |
| CC(=O)c1ccc(Nc2cc(-n3ccnc3)nc3ccccc23)cc1 | > 100 µM | 24.7 µM |
| NC(N)=NS(=O)(=O)c1ccc(NC(=O)c2cccc3c(Nc4ccc(S(=O)(=O)N=C(N)N)cc4)c4ccc(Cl)cc4nc23)cc1 | > 100 µM | – |
| CCOC(=O)c1c(O)[nH]c(=O)c(CC)c1C | > 100 µM | – |
| COc1cccc(NC(=O)c2sc3nc4c(cc3c2N)CCCC4)c1 | > 100 µM | 4.05 µM |
| CCOC(=O)C1(Cc2ccccc2)Cc2cc3c(cc2C1)CCC3 | > 100 µM | – |
| COc1ccc(-c2oc3cc(O)c(OC)c(O)c3c(=O)c2OC2OC(CO)C(O)C(O)C2O)cc1 (centres undefined) | > 100 µM | – |
| O=[N+]([O-])c1ccc(N/N=C\c2cc(Cl)ccc2O)nc1 | 4.39 µM | 0.63 µM |
| Cc1c(C(=O)CSc2nc3ccc([N+](=O)[O-])cc3[nH]2)c(=O)n(-c2ccccc2)n1C | > 100 µM | – |
| CC(=O)Oc1c(C)n(CCCl)ccc1=O | > 100 µM | – |
| C1CCC([PH+](C2CCCCC2)C2CCCCC2[PH+](C2CCCCC2)C2CCCCC2)CC1.[Au].[CH-]1CCCCC1C1CCCC[N-]1 (centres undefined) | 1.48 µM | 0.37 µM |
| Cc1cc2c(C)c3cc(C)c(N)cc3nc2cc1N | 4.04 µM | 0.543 µM |
| CC(=O)Nc1ccc(Nc2cc(=O)n(C)c(=O)[nH]2)cc1 | > 100 µM | – |
| CCOC(=O)C1C=C2O[C@@H]3OC4(CCCCC4)O[C@@H]3C2[C@H]2C(=O)C=CC(=O)[C@@]12C(=O)OC (some centres undefined) | 31.2 µM | – |
| Cn1c(=O)n2n(c1=O)Cc1cccc3cccc(c13)C2 | > 100 µM | – |
| O=C(c1cccs1)c1c(C(F)(F)F)n([O-])c2ccc(C(F)(F)F)cc2[n+]1=O | 3.18 µM | 1.67 µM |
| O=c1[nH]c2cc(C(F)(F)F)ccc2nc1Cc1ccccc1 | > 100 µM | – |
| ClC(Cl)(Cl)C1CCOC1n1nc2ccccc2n1 (centres undefined) | > 100 µM | – |
| CCOC(=O)c1cccc(=O)c(C(=O)OCC)c1 | > 100 µM | – |
| Cc1cc(S(N)(=O)=O)c(SCc2nc(N)nc(N(C)C)n2)cc1Cl | > 10 µM | – |
